The supplement of paper PMC3334620
The full ranking holds about 33,000 sequences; the median of “E-score (-0.5 to 0.5)” is about -0.043, and the highest 2% start at about 0.37. This is one part of the list.

Molecular target: T1, Upc2 (UniProt Q12151)
T1 sequence: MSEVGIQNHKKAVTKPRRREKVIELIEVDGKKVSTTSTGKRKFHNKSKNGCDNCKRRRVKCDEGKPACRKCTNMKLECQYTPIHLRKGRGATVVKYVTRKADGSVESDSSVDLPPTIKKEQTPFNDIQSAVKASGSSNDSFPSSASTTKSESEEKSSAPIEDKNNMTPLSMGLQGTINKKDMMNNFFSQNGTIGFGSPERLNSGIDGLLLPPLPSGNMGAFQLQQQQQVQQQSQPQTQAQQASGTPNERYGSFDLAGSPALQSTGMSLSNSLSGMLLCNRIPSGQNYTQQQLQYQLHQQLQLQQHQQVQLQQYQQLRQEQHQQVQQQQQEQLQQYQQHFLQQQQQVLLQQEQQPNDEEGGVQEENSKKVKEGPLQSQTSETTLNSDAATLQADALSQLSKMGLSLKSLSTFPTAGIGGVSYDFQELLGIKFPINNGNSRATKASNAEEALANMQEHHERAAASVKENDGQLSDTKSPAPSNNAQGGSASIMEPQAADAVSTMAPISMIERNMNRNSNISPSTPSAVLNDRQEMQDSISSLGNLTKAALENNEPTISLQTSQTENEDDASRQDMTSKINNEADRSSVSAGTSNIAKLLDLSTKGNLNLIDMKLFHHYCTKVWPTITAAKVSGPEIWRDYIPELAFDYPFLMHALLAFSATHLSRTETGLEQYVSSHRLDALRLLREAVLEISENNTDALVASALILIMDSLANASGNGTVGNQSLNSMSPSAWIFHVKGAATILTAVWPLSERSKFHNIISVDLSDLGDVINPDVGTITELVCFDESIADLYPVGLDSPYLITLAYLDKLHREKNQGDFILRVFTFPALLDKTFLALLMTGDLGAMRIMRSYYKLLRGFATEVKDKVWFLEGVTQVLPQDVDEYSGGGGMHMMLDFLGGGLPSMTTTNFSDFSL
Experiment: PBM E-score (8-mer binding enrichment) (E-score (-0.5 to 0.5)); higher = stronger / more preferred TF binding; most listed sequences are background and not binding sites
Conditions: protein concentration: 200 nM; construct: GST-full length
Summary of the method: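 PURExpress in vitro transcription/translation supplied GST-tagged yeast transcription factors, either full-length or DNA-binding domain. Applied at about 100-200 nM to universal all-10-mer Agilent arrays double-stranded by primer extension, the bound protein was detected with fluorescent anti-GST. E-scores, modified Wilcoxon-Mann-Whitney statistics, were given by the Universal PBM Analysis Suite to ungapped eight-base words pooled with their reverse complements after masliner normalisation.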

In order of falling “PBM E-score” value:
1. ATGAACGA  0.459
2. TGTCGTAA  0.433
3. ATCGTAAC  0.372
4. CGTATTTA  0.365
5. ACGAACAT  0.363
6. CGTTCCTC  0.339
7. ACGACTAT  0.317
8. ACGACTAA  0.31
9. ACTCGCAT  0.28
10. ACGACTCC  0.273
11. AACCGAGG  0.269
12. CGGATATA  0.262
13. GTCGCGAC  0.206
14. CGGTACCG  0.185
15. AATGTGCG  0.184
16. AAATTCGC  0.176
17. CCGTAAGG  0.141
18. CTGTTAAC  0.14
19. TAAACAAA  0.137
20. ACGGTGGG  0.134
21. AGCTTAAA  0.123
22. CGCCTACG  0.115
23. GAAATTCA  0.114
24. GCGCTTAC  0.113
25. CACGCGAG  0.11
26. AAAGTAAG  0.101
27. GAACCTCC  0.0995
28. ATGATTGA  0.0994
29. CGGTAAGC  0.0789
30. AACGTGCC  0.0771
31. CATCGATA  0.0768
32. TTCAGGAA  0.0763
33. AGAAATCT  0.0725
34. CGATCAGC  0.0725
35. CATTAACA  0.0699
36. CTATTAAC  0.0619
37. CGAAAAGC  0.0599
38. CTACAATC  0.0566
39. ACATCCGC  0.0487
40. CCTAACGC  0.0449
41. CGCGAGGA  0.0412
42. GCTTCAAA  0.0404
43. CTTAGCAA  0.0395
44. AGGGATCG  0.0387
45. CTTGCCAA  0.0377
46. CTAAACAC  0.037
47. TGCGGACA  0.0353
48. GGCCAGTA  0.0288
49. CGACTGAG  0.0282
50. ATCGCGTG  0.0268
51. CTAACTTC  0.0255
52. GGTGACGA  0.0255
53. TGACCAAA  0.0238
54. AGCTGAAT  0.0205
55. ATAACCTG  0.0193
56. AAATAAGC  0.0192
57. AATATGTC  0.0189
58. ACTGAATG  0.0183
59. GACATAAC  0.0164
60. CATTGTAA  0.0139
61. GTGGGAAC  0.0114
62. ACAAAGGC  0.00837
63. CCCCGCCG  0.00745
64. ACTCAAGT  0.00619
65. AGCCCTAC  0.00435
66. ATAACTTA  0.00349
67. AATAATCT  0.00322
68. AACAACAT  0.00118
69. CTGACCTA  0.00047
70. GTTAGATA  -0.00175
71. ATCAGCCG  -0.0021
72. GTCATCTA  -0.00467
73. AATGTTAT  -0.00548
74. CTGTCTAA  -0.0102
75. ACAGGATG  -0.0122
76. ATAAGGAA  -0.0142
77. CAGATTGC  -0.0173
78. CCCGTTGA  -0.0205
79. CACGTGCA  -0.021
80. ATTAGGCG  -0.0218
81. ACCACACA  -0.0224
82. ACAGGAGA  -0.0252
83. CCGACAGG  -0.0268
84. GAGCAGAC  -0.028
85. CACCTCTA  -0.0333
86. AGATCCCG  -0.0343
87. CATCAGTA  -0.0377
88. AGTGTAGG  -0.0434
89. ACTGATTC  -0.0442
90. CTCATCCC  -0.0444
91. GAGTTGTA  -0.0461
92. CGCTGTAA  -0.0506
93. CATCCGAC  -0.0538
94. CGGCTTGA  -0.054
95. GGGATTAA  -0.0596
96. GGCACTGA  -0.0605
97. GGGCTACA  -0.0609
98. CAATACAG  -0.0673
99. CACTGTTA  -0.0686
100. CTTTGGAA  -0.0689
101. CACCTCAA  -0.0698
102. CACGGTCG  -0.0714
103. AGATTTTG  -0.0723
104. ATTAAACA  -0.0789
105. CCATTCGC  -0.0819
106. GGCGGGAA  -0.084
107. GTGTTGCA  -0.0945
108. ACAGCTGC  -0.0946
109. AGTAAAGG  -0.0961
110. CAGCTTCC  -0.0992
111. ACCACCCC  -0.0994
112. ACCGCTGC  -0.101
113. CGTGAGGC  -0.103
114. ATTTAGTC  -0.104
115. AGAACATC  -0.105
116. AATATCTA  -0.106
117. AGCTTCTG  -0.107
118. CGCCGACG  -0.107
119. TGACAACA  -0.113
120. ATGACATC  -0.117
121. GACATGCC  -0.118
122. ACTTAAAG  -0.118
123. CAGGGCCC  -0.122
124. AAAGACCA  -0.122
125. ATGAGGGC  -0.124
126. CAAGGCCA  -0.124
127. CCTTAATC  -0.135
128. ACTAGGCC  -0.138
129. CAACGCCC  -0.14
130. TCCAAGCA  -0.14
131. CATCGGGC  -0.142
132. TGGATACA  -0.144
133. GATTCCGC  -0.144
134. CAGCTCCC  -0.144
135. CGCTGCTC  -0.147
136. ACTCTCAA  -0.15
137. AGTGGAAT  -0.153
138. ACACATTG  -0.155
139. GGCTTTTA  -0.157
140. ACTCCCAG  -0.162
141. AGAGGTGG  -0.166
142. AACCGCAG  -0.173
143. AAGGTTAG  -0.174
144. CCCGTGTC  -0.181
145. GGCGCCAC  -0.183
146. CACCCGCA  -0.185
147. ACTTGTAA  -0.187
148. ACCGCCCT  -0.193
149. CAGAGGAA  -0.193
150. GCCAACTA  -0.194
151. CAATAGCG  -0.2
152. GGAGGGCC  -0.201
153. CACAGAGC  -0.204
154. CATCATGA  -0.211
155. CTTGGGGA  -0.219
156. GGAACCTA  -0.229
157. CCTTACCA  -0.235
158. CCAGCACC  -0.239
159. CCGCAAGC  -0.24
160. GGCGGACC  -0.241
161. AACCTATG  -0.247
162. TGGGAGAA  -0.254
163. CACATGCC  -0.264
164. GGACCTCA  -0.265
165. CACCTCAG  -0.267
166. GCTGGTCC  -0.278
167. TCTAGGCA  -0.287
168. AGGCTACA  -0.294
169. GCCAGCAA  -0.305
170. ACACCCCC  -0.312
171. CATCTCCA  -0.321
172. CCCTAGGG  -0.34
